This passage reports binding signal results from article PMC7819943, “Rice protein-binding microarrays: a tool to detect cis-acting elements near promoter regions in rice”.

This is one part of the list.

This test has as its target T1, OsWOX13 (Oryza sativa, UniProt Q5QMM3 1-267).
T1 sequence: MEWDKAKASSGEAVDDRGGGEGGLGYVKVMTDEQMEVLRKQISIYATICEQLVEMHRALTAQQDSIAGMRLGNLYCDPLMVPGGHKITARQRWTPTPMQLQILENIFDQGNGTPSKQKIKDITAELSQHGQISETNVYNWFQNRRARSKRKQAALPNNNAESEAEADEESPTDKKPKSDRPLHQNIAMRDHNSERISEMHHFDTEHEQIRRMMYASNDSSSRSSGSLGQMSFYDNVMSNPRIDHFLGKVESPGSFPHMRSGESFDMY
Description: protein-binding microarray (RPBM); PBS, 2% BSA, 51.3 ng/ul salmon testes DNA, 50 uM zinc acetate, 200 nM TF, 25 C, 1 h; high values mean tight binding. The note with it: protein: recombinant; tags: N-terminal polyhistidine and DsRed monomer fusion (pET32a); label: CyDye5-dUTP incorporated in the synthesized complementary strand; 3' TTTTT single-stranded linker to array surface; dsDNA, one strand shown. Put shortly:
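An Axon 4000B scanner gave the binding signal as per-feature fluorescence intensity in arbitrary units. This followed washing of a custom Agilent array that had been incubated for 1 h at 25 °C with 200 nM protein in PBS, 2% BSA, salmon testes DNA and 50 µM zinc acetate. The proteins were transcription factors fused at the N-terminus to polyhistidine and DsRed, expressed in E. coli BL21-CodonPlus and purified on Ni–NTA.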
For “TGATAATGTCTAAATTTGTATACAAAAGTTGATTTATTTTCGGAGTCACCTAGTGCAG”, the binding signal was 3860 fluorescence intensity (a.u.).

Regarding “AGAGGGTGGGGACATGGGGATTGATTTCACCTGTAGGATTCGGAGTCACCTAGTGCAG”, the binding signal was 3430 fluorescence intensity (a.u.).

As for “TGATTTAATTTAATGCATCTGGATCTTCAATCGGATGGTTCGGAGTCACCTAGTGCAG”, the binding signal was 24200 fluorescence intensity (a.u.).

In the case of “TTCTCTAATTTATTAGAACGCCACATGACGGCTTGAGAGTCGGAGTCACCTAGTGCAG”, the binding signal was 7680 fluorescence intensity (a.u.).

On to “ACAACTTGATTTCATTGAATTTATTGTGGCGCATTTACAGCGGAGTCACCTAGTGCAG”, for which the binding signal is 11900 fluorescence intensity (a.u.).

For “CCAAATACACAGCCCATTAACACAAGATTAATGACCCACACGGAGTCACCTAGTGCAG”, the binding signal was 4780 fluorescence intensity (a.u.).

Turning to “ATAATTTATTAGTACTAGTATATTGCATCTATCCTATATACGGAGTCACCTAGTGCAG”, the binding signal was 5090 fluorescence intensity (a.u.).

For “GTTGCAGGGTGGGGATTGTTAAATTTATTGTTTGGCTGGACGGAGTCACCTAGTGCAG”, the binding signal is 8170 fluorescence intensity (a.u.).

On to “AAACGTCAATTAACATGGAACCGGAGGGAGTAGTTCCATACGGAGTCACCTAGTGCAG”, for which the binding signal was 14800 fluorescence intensity (a.u.).

Turning to “GAGTATTAATTACATAAATTTTAAAACAAATTTATTCAATCGGAGTCACCTAGTGCAG”, the binding signal is 12900 fluorescence intensity (a.u.).

As for “AGTATCTCGAGTTTATACACTAATTAGTACTCCAGCAGCTCGGAGTCACCTAGTGCAG”, the binding signal is 5670 fluorescence intensity (a.u.).

As for “CCGCCCGCATCCATCACCTAAATTTACTGGTAATCGAGAGCGGAGTCACCTAGTGCAG”, the binding signal was 5080 fluorescence intensity (a.u.).

For “ATTTGATTTGAGTTTTAAGACAGGAAGCTTTTGGAATTACCGGAGTCACCTAGTGCAG”, the binding signal is 24700 fluorescence intensity (a.u.).

As for “AAGATGTGACAATTAAGAATTTATCACTCATAGTCTATGACGGAGTCACCTAGTGCAG”, the binding signal was 5730 fluorescence intensity (a.u.).

As to “AAAGGTGATGTGATAAATTGACTCATTCCATGATCGACTCCGGAGTCACCTAGTGCAG”, the binding signal was 18600 fluorescence intensity (a.u.).

As to “GCGTATTGACTGTTGAGCCCGGCCCGTATGAATCCCTTGTCGGAGTCACCTAGTGCAG”, the binding signal is 6710 fluorescence intensity (a.u.).

On to “ATAGATGACAAATTGGGCAGCGGGAGGGACAGAAACTGGACGGAGTCACCTAGTGCAG”, for which the binding signal is 6800 fluorescence intensity (a.u.).

For the sequence “CATCAATCACAAAACTGGCTATAACGCCTCTTCCATATTCCGGAGTCACCTAGTGCAG”, the binding signal was 19800 fluorescence intensity (a.u.).

Consider “ATCATTAATTAACAAAACAGACTTAATGGTTCTTGATCTTCGGAGTCACCTAGTGCAG”, for which the binding signal was 36000 fluorescence intensity (a.u.).

In the case of “CACTTGATTAATTTATCCTCTCCTCGCGTCGCTGTCGCGTCGGAGTCACCTAGTGCAG”, the binding signal is 52700 fluorescence intensity (a.u.).

Regarding “AAACCTACCAATTGATTAATTAATGTCAAAAGATTTTGCACGGAGTCACCTAGTGCAG”, the binding signal was 30700 fluorescence intensity (a.u.).

On to “TACTAGTAATTACCGCTAGTAATCACGATAATAGTATGGCCGGAGTCACCTAGTGCAG”, for which the binding signal was 17000 fluorescence intensity (a.u.).

Regarding “AGGCTTAATTACGTGTACATAACTAGTATATAATAATATACGGAGTCACCTAGTGCAG”, the binding signal is 11600 fluorescence intensity (a.u.).

Regarding “AATAATTTTATACTCCACCATTTTCAAATAATTGACACGGCGGAGTCACCTAGTGCAG”, the binding signal is 25000 fluorescence intensity (a.u.).

In the case of “AATAACTAACTTTTGAGATTGAACGGAGGTAGTAGCCATCCGGAGTCACCTAGTGCAG”, the binding signal was 20300 fluorescence intensity (a.u.).

“TGGTTGATGAGAAGATAGGTGAACTGGATGATGCCTCTCCCGGAGTCACCTAGTGCAG”: the binding signal was 4570 fluorescence intensity (a.u.).

As to “ATCAAATCAATAATTGAATATATTTTCATAATAAATTTGTCGGAGTCACCTAGTGCAG”, the binding signal is 29400 fluorescence intensity (a.u.).

Consider “AATAGCGTCTTCAATCAATAGCGTCGTACAACCATTCAACCGGAGTCACCTAGTGCAG”, for which the binding signal is 5950 fluorescence intensity (a.u.).

Consider “TGATTGATTAGTCACCACACCACAGTGCCACACACGTAGTCGGAGTCACCTAGTGCAG”, for which the binding signal is 46600 fluorescence intensity (a.u.).

Regarding “TCAATTTGATTTGCTTTTGCATCTTAGTACAACTTTATTCCGGAGTCACCTAGTGCAG”, the binding signal was 11900 fluorescence intensity (a.u.).

For the sequence “ATAATTGATGGAATTACTGAAGCAGTTGAGCACAATGCGTCGGAGTCACCTAGTGCAG”, the binding signal is 41900 fluorescence intensity (a.u.).

For “TCTAATGATGCGTTAATGCTAGTGCACATCTGTAATGTCACGGAGTCACCTAGTGCAG”, the binding signal is 3840 fluorescence intensity (a.u.).

With “TTGTCATAATTTGAAATTCAAATTCAAAACTGTTCAAACACGGAGTCACCTAGTGCAG”, the binding signal is 8110 fluorescence intensity (a.u.).

In the case of “TTAGTCACCAATCAACTATTGTACCAACAATAGTGGGTCCCGGAGTCACCTAGTGCAG”, the binding signal is 10500 fluorescence intensity (a.u.).

As to “CCTGATTAACTGACAGCTCCACCCCGTTTTGCTATTCCAGCGGAGTCACCTAGTGCAG”, the binding signal was 46200 fluorescence intensity (a.u.).

In the case of “ACTCGTTAATCATATACTTAATCACTTTGTCTCGTAGGTTCGGAGTCACCTAGTGCAG”, the binding signal was 11800 fluorescence intensity (a.u.).

For the sequence “TTAATTAACTCAGCTTCTAGTTCATATGACTCTTGCTAATCGGAGTCACCTAGTGCAG”, the binding signal was 8400 fluorescence intensity (a.u.).

On to “CTTTAACTATAGTAAACAGTAATTTTATGGAATTCACTCACGGAGTCACCTAGTGCAG”, for which the binding signal is 4610 fluorescence intensity (a.u.).

Regarding “TATTGAGCCTAATTAATCTATGATTAGGCTATGTGATGCTCGGAGTCACCTAGTGCAG”, the binding signal was 12900 fluorescence intensity (a.u.).

Turning to “TAAAATTTTCTCTTAGATTACTCATCGAATTTACGATCCGCGGAGTCACCTAGTGCAG”, the binding signal is 9970 fluorescence intensity (a.u.).

In the case of “CGTGAGACGACGAGATTGACGTCTTCTTCCAAGAGCCCTTCGGAGTCACCTAGTGCAG”, the binding signal was 11300 fluorescence intensity (a.u.).

As for “CTTCTGTTGATCGGCTCAATCAACGAAATCCCCGAAAACGCGGAGTCACCTAGTGCAG”, the binding signal is 13700 fluorescence intensity (a.u.).

Regarding “AGTGTGATTGATGCACAAACAAACAGCTCAAGTTGAGGCCCGGAGTCACCTAGTGCAG”, the binding signal is 55400 fluorescence intensity (a.u.).

For the sequence “AAAATCTGACATCTGACATGTTAATTAAGCTTGTGTTAGTCGGAGTCACCTAGTGCAG”, the binding signal was 4890 fluorescence intensity (a.u.).

As for “GCTGTGATGGACTGGGTAATCAGAAGGGAGACATGCGAGGCGGAGTCACCTAGTGCAG”, the binding signal is 23600 fluorescence intensity (a.u.).

For “AGTCTCTCCAATCTAATCTCATTTCATCTTCATCATCTCCCGGAGTCACCTAGTGCAG”, the binding signal was 5590 fluorescence intensity (a.u.).

Turning to “TCTTAATTACTTATAGAAAATAAATTCAAGAACGGGCCTACGGAGTCACCTAGTGCAG”, the binding signal is 17000 fluorescence intensity (a.u.).

As to “AGCAAAACACATGATTGATTTTATGGAGCTTCACGCCATACGGAGTCACCTAGTGCAG”, the binding signal is 31800 fluorescence intensity (a.u.).

Regarding “AAGATATGATAATTTAGTGTCCATTATGGTGTTTCTTAGTCGGAGTCACCTAGTGCAG”, the binding signal was 3870 fluorescence intensity (a.u.).

For “GCAGTGATTAACACATATGCACTTATAATCTGTCTAACTTCGGAGTCACCTAGTGCAG”, the binding signal is 17300 fluorescence intensity (a.u.).

Take “ATGAATGGTGGAAGATTCTGATTGGTTAAGTAGTGGAGTTCGGAGTCACCTAGTGCAG”: the binding signal is 19100 fluorescence intensity (a.u.).

For “AAATATATTCAATTAGCGATTTGATGAAACTAATTTAGTACGGAGTCACCTAGTGCAG”, the binding signal was 11200 fluorescence intensity (a.u.).

Take “ATTCTTAAAATGAATGACATAATTACTTATTTAGGCAAACCGGAGTCACCTAGTGCAG”: the binding signal is 8350 fluorescence intensity (a.u.).

For “TGCCCTAATTACAACCCATTTGCTTATCTCTCTCCTCTCTCGGAGTCACCTAGTGCAG”, the binding signal was 12700 fluorescence intensity (a.u.).
